The list shows a part of the results. At the low end of the ranking the order means little.

This experiment has as its target GST-SBP-SLBP (stem-loop binding protein) (UniProt Q14493). Nature of the experiment: targeted RNA Bind-n-Seq.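 Also: DESeq read counts versus GST-SBP nonspecific binding control pulldown.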 The settings on record: RBNS binding buffer: 25 mM Tris pH 7.5, 150 mM KCl, 3 mM MgCl2, 0.1% Tween, 0.5 mg/mL BSA, 1 mM DTT; 27 nM protein, 750 pM RNA pool; temperature not stated; high values mean tight binding.
As to “GGUCACGUCUCAAUCAACUCUAUCCCCAGGGAAAGCCCUGGCAUUCUCAACAGCUCGCAGUCAAG”, the binding signal (log2 fold change) is -0.081.

“GGUCACGUCUCAAUCAACUCCCACGAGGGGGGGAAAACCCCUUUACCCUCCACAUCAACAGCUCGCAGUCAAG”: the binding signal (log2 fold change) was 0.0749. Then “GGUCACGUCUCAAUCAACUCAAUCUCAGGAGUUUGCUCCUGCAAUUUCAACAGCUCGCAGUCAAG”, with -0.0391; and “GGUCACGUCUCAAUCAACUCAGUCCCAGGAGUUUACUCCUGCAUAUUCAACAGCUCGCAGUCAAG”, with 0.00248. To “GGUCACGUCUCAAUCAACUCUUUCCCCAGGGAAAGCCCUGGUUUUUUCAACAGCUCGCAGUCAAG” belongs 0.101; to “GGUCACGUCUCAAUCAACUCUACUCCCAGGGAAAACCCUGGUAUUCUCAACAGCUCGCAGUCAAG”, 0.013; to “GGUCACGUCUCAAUCAACUCAUUCUCAGGAGUUUACUCCUGUAUUCUCAACAGCUCGCAGUCAAG”, 0.0676.

As to “GGUCACGUCUCAAUCAACUCAUUCCCAGGAGUUUUCUCCUGUUUUUUCAACAGCUCGCAGUCAAG”, the binding signal (log2 fold change) came out at 0.0221. Then “GGUCACGUCUCAAUCAACUCCUUAGAGGGGGGGAAAACCCCUUUACCCUCAAUUUCAACAGCUCGCAGUCAAG”, with -0.127; and “GGUCACGUCUCAAUCAACUCAGUUUCCAGGGAAAGCCCUGGCUUUUUCAACAGCUCGCAGUCAAG”, with 0.3; and “GGUCACGUCUCAAUCAACUCUUUCCCAGGAGUUUACUCCUGUAUUUUCAACAGCUCGCAGUCAAG”, with -0.0022. To “GGUCACGUCUCAAUCAACUCUUUCCCAGGAGUUUUCUCCUGCUAUCUCAACAGCUCGCAGUCAAG” belongs 0.0568. For “GGUCACGUCUCAAUCAACUCUCCUGAGGGGGGGAAAACCCCUUUACCCUCCAAAUCAACAGCUCGCAGUCAAG”, the binding signal (log2 fold change) is -0.0371. Consider “GGUCACGUCUCAAUCAACUCUACUUCAGGAGUUUUCUCCUGUUUUCUCAACAGCUCGCAGUCAAG”, for which the binding signal (log2 fold change) was -0.0434. In the case of “GGUCACGUCUCAAUCAACUCAAUCCCCAGGGAAAUCCCUGGCUAAUUCAACAGCUCGCAGUCAAG”, the binding signal (log2 fold change) is -0.221. To “GGUCACGUCUCAAUCAACUCAUUCCCAGGAGUUUCCUCCUGUAAUCUCAACAGCUCGCAGUCAAG” belongs 0.0845. “GGUCACGUCUCAAUCAACUCACAAGAGGGGGGGAAAACCCCUUUGCCCUCGAAUUCAACAGCUCGCAGUCAAG”: the binding signal (log2 fold change) is 0.144. Then “GGUCACGUCUCAAUCAACUCAAUUUCAGGAGUUUACUCCUGCUAUGUCAACAGCUCGCAGUCAAG”, with 0.0954; and “GGUCACGUCUCAAUCAACUCAUCUUCCAGGGAAAUCCCUGGUUUAUUCAACAGCUCGCAGUCAAG”, with 0.0547. Consider “GGUCACGUCUCAAUCAACUCAUUCCCCAGGGAAACCCCUGGUAAACUCAACAGCUCGCAGUCAAG”, for which the binding signal (log2 fold change) was 0.0728. As to “GGUCACGUCUCAAUCAACUCUACUUCCAGGGAAAUCCCUGGCAUAUUCAACAGCUCGCAGUCAAG”, the binding signal (log2 fold change) came to 0.011. Take “GGUCACGUCUCAAUCAACUCUUCCCCCAGGGAAAACCCUGGUAAAUUCAACAGCUCGCAGUCAAG”: the binding signal (log2 fold change) was -0.156. Turning to “GGUCACGUCUCAAUCAACUCAUUUCCAGGAGUUUCCUCCUGUAUUCUCAACAGCUCGCAGUCAAG”, the binding signal (log2 fold change) is -0.0425.

Take “GGUCACGUCUCAAUCAACUCUAACGAGGGGGGGAAAACCCCUUUGCCCUCAUCAUCAACAGCUCGCAGUCAAG”: the binding signal (log2 fold change) is -0.206. With “GGUCACGUCUCAAUCAACUCUUCUCCCAGGGAAAUCCCUGGCUUUUUCAACAGCUCGCAGUCAAG”, the binding signal (log2 fold change) stood at 0.237. For the sequence “GGUCACGUCUCAAUCAACUCUAUCCCCAGGGAAAGCCCUGGCUUAUUCAACAGCUCGCAGUCAAG”, the binding signal (log2 fold change) is -0.108. With “GGUCACGUCUCAAUCAACUCUUUCGCCAGGGAAAUCCCUGGGUAUUUCAACAGCUCGCAGUCAAG”, the binding signal (log2 fold change) was -0.106.

For “GGUCACGUCUCAAUCAACUCACAAGAGGGGGGGAAAACCCCUUUGCCCUCAUUAUCAACAGCUCGCAGUCAAG”, the binding signal (log2 fold change) is -0.0799. Turning to “GGUCACGUCUCAAUCAACUCAAUUCCAGGAGUUUGCUCCUGCAUAUUCAACAGCUCGCAGUCAAG”, the binding signal (log2 fold change) was -0.102.

With “GGUCACGUCUCAAUCAACUCAACAGAGGGGGGGAAAACCCCUUUACCCUCACCAUCAACAGCUCGCAGUCAAG”, the binding signal (log2 fold change) turned out to be 0.341. In the case of “GGUCACGUCUCAAUCAACUCAUCGUCAGGAGUUUUCUCCUGCAUUUUCAACAGCUCGCAGUCAAG”, the binding signal (log2 fold change) is -0.00603.

With “GGUCACGUCUCAAUCAACUCUUCCCCCAGGGAAAGCCCUGGUAUACUCAACAGCUCGCAGUCAAG”, the binding signal (log2 fold change) is -0.247.

Consider “GGUCACGUCUCAAUCAACUCAACUCCCAGGGAAAACCCUGGUUUUUUCAACAGCUCGCAGUCAAG”, for which the binding signal (log2 fold change) is -0.0702.

In the case of “GGUCACGUCUCAAUCAACUCAAGUCCAGGAGUUUCCUCCUGUAAUUUCAACAGCUCGCAGUCAAG”, the binding signal (log2 fold change) stood at 0.0973. To “GGUCACGUCUCAAUCAACUCACACGAGGGGGGGAAAACCCCUUUGCCCUCAAAAUCAACAGCUCGCAGUCAAG” belongs -0.155; to “GGUCACGUCUCAAUCAACUCAUCCUCAGGAGUUUUCUCCUGCUAUCUCAACAGCUCGCAGUCAAG”, 0.166. Then “GGUCACGUCUCAAUCAACUCUCACGAGGGGGGGAAAACCCCUUUACCCUCAUAAUCAACAGCUCGCAGUCAAG”, with -0.285. On to “GGUCACGUCUCAAUCAACUCAUUCUCCAGGGAAAUCCCUGGCAUAUUCAACAGCUCGCAGUCAAG”, for which the binding signal (log2 fold change) came to 0.256. Consider “GGUCACGUCUCAAUCAACUCAUUCGAGGGGGGGAAAACCCCUUUACCCUCAUAAUCAACAGCUCGCAGUCAAG”, for which the binding signal (log2 fold change) was -0.166. With “GGUCACGUCUCAAUCAACUCUUCCCCAGGAGUUUACUCCUGUAUUCUCAACAGCUCGCAGUCAAG”, the binding signal (log2 fold change) was -0.0104. Regarding “GGUCACGUCUCAAUCAACUCUAUCCCAGGAGUUUACUCCUGUAUUCUCAACAGCUCGCAGUCAAG”, the binding signal (log2 fold change) is 0.0741. On to “GGUCACGUCUCAAUCAACUCUUCCUCAGGAGUUUCCUCCUGCUAUUUCAACAGCUCGCAGUCAAG”, for which the binding signal (log2 fold change) stood at 0.0337. “GGUCACGUCUCAAUCAACUCCUCCGAGGGGGGGAAAACCCCUUUACCCUCAAAUUCAACAGCUCGCAGUCAAG”: the binding signal (log2 fold change) was -0.0179. Then “GGUCACGUCUCAAUCAACUCUAGUCCAGGAGUUUUCUCCUGCAUAUUCAACAGCUCGCAGUCAAG”, with -0.232. To “GGUCACGUCUCAAUCAACUCCAACGAGGGGGGGAAAACCCCUUUACCCUCAACAUCAACAGCUCGCAGUCAAG” belongs -0.251; to “GGUCACGUCUCAAUCAACUCAAUCUCAGGAGUUUUCUCCUGCAAAGUCAACAGCUCGCAGUCAAG”, 0.0364. As for “GGUCACGUCUCAAUCAACUCACUAGAGGGGGGGAAAACCCCUUUACCCUCGUCAUCAACAGCUCGCAGUCAAG”, the binding signal (log2 fold change) is 0.051.

The record behind these values is paper PMC5892938.
